The values that follow come from PubChem BioAssay (NCI).

SMILES strings stand for the structures.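 Exposure lasted 48 hours, with cells grown in 96-well plates and compounds tested at five concentrations. Abbreviation: GI50, concentration required for 50% inhibition of growth. TGI: concentration producing complete growth inhibition.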

The assay relates to NCI-H322M lung. Put plainly: NCI tumour cell line growth inhibition, 48 h.
In the case of `CCNC(=O)N1CCc2cc(OC)c(OCCc3ccc(OC)nc3)cc2C1c1ccc(C)cc1C` (stereo unspecified), the GI50 is 1960 nM and the TGI is over 100000 nM.

Take `CNC1CCc2c(sc(NC(=O)c3ccc(C(C)(C)C)cc3)c2C(N)=O)C1` (stereo unspecified): the GI50 is 2130 nM and the TGI amounted to 5060 nM.

As to `CN1CCN(Cc2ccc(NC(=O)c3cncc(C#Cc4cnc5ccc(OCC6(C)COC6)nn45)c3)cc2C(F)(F)F)CC1`, the GI50 was 170 nM and the TGI amounted to 498 nM.
